Source: the supplement of paper PMC12217912
The other results are listed elsewhere or left out. The full chains were built here from the parent and the listed change. Inactive controls read about 0.05.

B1: TEV protease; numbered along this chain (parent)
chain: MGESLFKGPRDYNPISSSICHLTNESDGHTTSLYGIGFGPFIITNKHLFRRNNGTLVVQSLHGVFKVKDTTTLQQHLVDGRDMIIIRMPKDFPPFPQKLKFREPQREERICLVTTNFQTKSMSSMVSDTSCTFPSGDGIFWKHWIQTKDGQCGSPLVSTRDGFIVGIHSASNFTNTNNYFTSVPKNFMELLTNQEAQQWVSGWRLNADSVLWGGHKVFMVKPEEPFQPVKEATQL

Variants of: B1
Assay: raw area under fraction-flipped curve 0-4 h after induction (AUC4h, not background-subtracted), DNA-recorder readout of cleavage of the substrate (dimensionless); higher = more cleavage of the substrate by the protease variant
Conditions: temperature: 34 °C; time window: 0-4 h after rhamnose induction
Procedure: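 In vivo DNA recorder in E. coli TOP10(DE3) ΔrhaA at 34 °C. Each TEVp single-site mutant (parent TEVp 0) is paired with a single-site variant of the 7-mer TEVs (canonical ENLYFQ|S). The substrate sits between flexible linkers in a Bxb1-sfGFP-TEVs-SsrA fusion, so cleavage stabilises Bxb1 and speeds flipping of a recombination array, read by NGS. The value is the raw area under the fraction-flipped curve over 0-4 h after rhamnose induction (AUC4h), with ≥20 reads per time point. It is not background-subtracted; inactive controls average about 0.047.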
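Note: Bxb1 expression induced with 0.2% (w/v) L-rhamnose at OD600 near 0.5, cultures sampled hourly, flipped fraction per protease–substrate barcode pair counted by paired-end Illumina sequencing.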

Variant | area with substrate EALYFQS | area with substrate EDLYFQS | area with substrate EGLYFQS | area with substrate EHLYFQS | area with substrate EILYFQS | area with substrate EKLYFQS | area with substrate EMLYFQS | area with substrate EPLYFQS | area with substrate EQLYFQS | area with substrate ESLYFQS | area with substrate ETLYFQS | area with substrate EVLYFQS | area with substrate EWLYFQS | area with substrate ECLYFQS | area with substrate ERLYFQS | area with substrate EFLYFQS | area with substrate EYLYFQS | area with substrate EELYFQS | area with substrate ELLYFQS
D149W | 0.101 | 0.103 | 0.0549 | 0.0728 | 0.0445 | 0.0712 | 0.0557 | 0.0817 | 0.0681 | 0.0462 | 0.0553 | 0.0612 | 0.0816 | – | – | – | – | – | –
W141K | 0.0548 | 0.063 | 0.0588 | 0.055 | 0.0315 | – | – | – | 0.0403 | 0.0526 | – | 0.0559 | – | 0.0608 | 0.0578 | – | – | – | –
W141L | 0.0641 | – | – | 0.0569 | 0.0521 | – | 0.0579 | 0.0562 | 0.047 | 0.0639 | – | – | – | – | 0.0857 | – | – | – | –
G153H | 0.0388 | 0.053 | – | – | 0.0494 | 0.0454 | 0.0399 | – | 0.0474 | 0.0528 | 0.0472 | 0.0388 | 0.0373 | 0.0284 | – | 0.0328 | 0.0441 | – | –
G153A | 0.0591 | – | – | – | – | 0.0665 | 0.0586 | – | – | 0.0612 | – | – | – | 0.0572 | – | – | – | 0.051 | –
T115I | 0.104 | – | 0.0709 | 0.1 | 0.0861 | 0.0896 | – | – | 0.121 | – | 0.0836 | 0.083 | – | 0.102 | – | – | – | – | –
E107V | 0.136 | – | – | 0.0937 | 0.0955 | 0.108 | 0.104 | 0.0958 | 0.108 | 0.0882 | 0.073 | 0.107 | 0.093 | 0.117 | 0.0963 | – | 0.0796 | – | 0.0655
E107Q | 0.147 | 0.0995 | 0.1 | – | – | – | 0.0954 | – | 0.102 | 0.125 | 0.113 | 0.0973 | – | 0.1 | 0.0962 | – | 0.106 | – | –
E107D | 0.0951 | 0.122 | 0.097 | 0.107 | 0.102 | – | 0.0955 | 0.119 | 0.102 | 0.114 | – | 0.0971 | 0.0843 | 0.084 | 0.106 | 0.087 | 0.102 | 0.145 | 0.0925
V157T | 0.107 | – | – | – | – | – | – | – | – | – | – | – | 0.0878 | 0.0902 | – | 0.0971 | – | – | –
V157C | 0.106 | – | 0.0829 | – | 0.106 | 0.0989 | 0.134 | 0.104 | – | 0.0709 | 0.148 | – | – | – | 0.104 | – | 0.0951 | – | –
V157K | 0.077 | – | – | 0.0232 | 0.0671 | 0.0673 | 0.0555 | – | – | – | 0.0933 | – | – | – | – | – | – | – | 0.0469
Q146E | 0.106 | 0.111 | – | 0.112 | 0.129 | 0.109 | 0.109 | – | 0.109 | 0.113 | – | 0.1 | – | 0.0853 | – | – | 0.224 | 0.133 | –
Q146G | 0.137 | 0.153 | 0.098 | – | – | 0.091 | – | 0.155 | – | 0.0911 | 0.124 | – | – | 0.135 | – | – | 0.151 | 0.156 | 0.0988
Q146Y | 0.117 | – | – | – | 0.0947 | – | – | 0.133 | 0.128 | 0.0936 | – | 0.103 | 0.0929 | 0.0748 | – | – | 0.0104 | 0.183 | –
R109D | 0.0625 | 0.12 | – | – | – | – | 0.107 | 0.112 | – | 0.0956 | – | 0.0986 | – | 0.0601 | – | 0.0975 | – | 0.133 | –
R109M | 0.078 | – | – | – | – | 0.129 | – | – | – | 0.137 | – | 0.0808 | – | 0.106 | 0.109 | – | – | – | 0.111

Variant | area with substrate EALYFQS | area with substrate EDLYFQS | area with substrate EGLYFQS | area with substrate EHLYFQS | area with substrate EILYFQS | area with substrate EKLYFQS | area with substrate EMLYFQS | area with substrate EPLYFQS | area with substrate EQLYFQS | area with substrate ESLYFQS | area with substrate ETLYFQS | area with substrate EVLYFQS | area with substrate EWLYFQS | area with substrate ECLYFQS | area with substrate ERLYFQS | area with substrate EFLYFQS | area with substrate EYLYFQS | area with substrate EELYFQS | area with substrate ELLYFQS
N116I | 0.0975 | 0.089 | – | 0.0937 | – | – | – | – | – | 0.0885 | – | 0.0842 | – | – | – | – | – | – | 0.0859
N116G | 0.104 | 0.105 | – | – | 0.0845 | 0.114 | 0.117 | 0.135 | – | 0.0738 | 0.136 | 0.097 | – | 0.108 | 0.0803 | – | – | – | 0.0949
F117I | 0.106 | – | 0.0441 | 0.12 | – | – | – | – | 0.0874 | 0.0903 | – | 0.0812 | – | 0.108 | 0.102 | – | 0.0906 | – | –
G138I | 0.117 | – | – | 0.102 | – | – | 0.149 | 0.0986 | – | 0.0901 | 0.048 | 0.0805 | – | 0.0664 | – | – | 0.0762 | – | 0.07
S158C | 0.0797 | 0.116 | 0.069 | – | 0.0874 | – | – | – | 0.108 | 0.0937 | – | 0.0997 | 0.0853 | 0.0887 | 0.0899 | 0.111 | – | – | 0.0933
G136I | 0.133 | – | 0.135 | – | 0.105 | – | – | 0.137 | – | 0.109 | – | 0.209 | – | – | – | 0.0837 | – | – | 0.0879
W144E | 0.092 | – | – | – | 0.0836 | 0.091 | 0.0814 | 0.0566 | 0.0904 | 0.0844 | – | 0.0741 | 0.0793 | 0.0834 | 0.0841 | – | – | – | 0.0653
E108W | 0.0682 | – | 0.0667 | 0.0679 | – | 0.0512 | 0.0617 | – | 0.0568 | 0.0647 | 0.0641 | 0.0866 | – | 0.0604 | 0.0599 | 0.0477 | – | – | –
E108R | 0.0635 | 0.0755 | – | – | 0.0641 | 0.0345 | 0.0611 | – | 0.0709 | – | 0.057 | 0.055 | – | – | 0.0577 | – | 0.073 | – | 0.0648
Q151K | 0.0698 | 0.116 | – | 0.087 | 0.0864 | – | 0.0737 | 0.103 | 0.106 | 0.0776 | – | – | 0.06 | 0.1 | 0.0853 | – | – | 0.0708 | –
P134F | 0.053 | 0.0799 | – | 0.0769 | 0.0501 | – | – | 0.0719 | 0.0727 | 0.0689 | – | – | – | 0.0517 | 0.0437 | 0.058 | – | – | 0.0701
P134A | 0.131 | – | – | – | – | 0.0941 | – | – | 0.135 | 0.0976 | – | 0.114 | – | – | – | – | 0.105 | 0.13 | –
P134M | 0.118 | – | – | – | 0.073 | 0.0961 | 0.118 | 0.118 | – | – | 0.0935 | – | – | – | – | – | – | 0.0763 | –
V126D | 0.0977 | 0.104 | 0.107 | 0.111 | 0.0996 | – | – | – | – | 0.0891 | 0.105 | 0.0682 | – | 0.161 | – | 0.0879 | – | 0.148 | 0.0829
S127N | 0.12 | 0.144 | 0.102 | – | – | 0.0962 | 0.118 | 0.139 | 0.148 | 0.106 | – | 0.0908 | – | 0.124 | 0.1 | – | 0.117 | 0.139 | –
S127R | 0.0928 | – | – | 0.136 | 0.0856 | 0.119 | – | – | 0.135 | 0.109 | – | – | – | 0.138 | 0.106 | – | – | 0.139 | 0.0947
